The list shows a part of the results. Shown are side measurements of this screen, not its main read-out; they come without a call. For part of these data: Most of these compounds were active or inconclusive in the main read-out, so they are no random draw. The note in brackets gives the kind of curve behind each potency; many fits are weak.
test: qHTS drug screen for cell cycle checkpoint inhibitors in PARPi-resistant BRCA-mutant ovarian cancer cell lines. (AID 1963452); conditions: PEO1/OlaR viability, CellTiter-Glo luminescence, 96 h; measured here: PEO4 viability
Procedure, shortened: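 PEO1, PEO4 and PEO1/OlaR ovarian cancer cells, 600 per well, exposed 96 h at 37C to a dilution series. Viability read by CellTiter-Glo luminescence, normalized to DMSO and empty wells; activity summarized as Z-AUC.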
Tags tell the direction and shape of the fitted curve.

SMILES | AC50
CN1CCN(CCCN2c3ccccc3Sc3ccc(C(F)(F)F)cc32)CC1 | 13.8 µM [falling, partial curve]
COC(=O)Nc1nc2ccc(C(=O)c3cccs3)cc2[nH]1 | 0.0616 µM [falling, full curve]
O=c1cc(-c2ccc(O)cc2)oc2cc(O)cc(O)c12 | 19.5 µM [falling, single point]
CC(=O)[C@]1(O)Cc2c(O)c3c(c(O)c2[C@@H](O[C@H]2C[C@H](N)[C@H](O)[C@H](C)O2)C1)C(=O)c1ccccc1C3=O | 1.95 µM [falling, partial curve, poor fit]
CC/C(=C(\c1ccccc1)c1ccc(OCCN(C)C)cc1)c1ccccc1 | 6.31 µM [falling, full curve, poor fit]
COc1cc2ncnc(Nc3cccc(Cl)c3)c2cc1OC | 13.8 µM [falling, partial curve, poor fit]
CC(C)c1ccc2c(c1)c(SC(C)(C)C)c(CC(C)(C)C(=O)O)n2Cc1ccc(Cl)cc1 | 15.5 µM [falling, single point]
Oc1ccc(/C=C/c2cc(O)cc(O)c2)cc1 | 11 µM [falling, partial curve, poor fit]
Oc1ccc(-c2nc(-c3ccc(F)cc3)c(-c3ccncc3)[nH]2)cc1 | 12.3 µM [falling, partial curve]
Oc1cc(O)cc(/C=C/c2ccc(O)c(O)c2)c1 | 5.49 µM [falling, partial curve]
O=C1c2c(O)ccc(O)c2C(=O)c2c(NCCNCCO)ccc(NCCNCCO)c21 | 0.389 µM [falling, full curve, poor fit]
O=C(Nc1ccc([N+](=O)[O-])cc1Cl)c1cc(Cl)ccc1O | 0.389 µM [falling, full curve]

test: qHTS for identification of novel therapeutic agents for treatment of microphthalmiaassociated transcription factor (MiT) renal cell carcinoma (RCC) (AID 1963991); conditions: TFE3-RCC UOK109 viability, CellTiter-Glo, 48 h; measured here: UOK109 Z-AUC; stronger effect = lower value
Procedure, shortened: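 Three TFE3-fusion RCC cell lines (UOK109, UOK124, UOK145), 500 cells/well, were exposed to the 1912-compound MIPE 4.0 library for 48 hours at 37 C. Viability was read by CellTiter-Glo luminescence, normalised to DMSO (100%) and empty wells (0%), with 11-concentration curve fits.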

SMILES | z-score
CN1CCN(CCCN2c3ccccc3Sc3ccc(C(F)(F)F)cc32)CC1 | -1.75
CCOC(=O)N1CCC(=C2c3ccc(Cl)cc3CCc3cccnc32)CC1 | -0.0117
O=c1cc(-c2ccc(O)cc2)oc2cc(O)cc(O)c12 | -0.339
COc1cc2ncnc(Nc3cccc(Cl)c3)c2cc1OC | -2.73
CC(C)c1ccc2c(c1)c(SC(C)(C)C)c(CC(C)(C)C(=O)O)n2Cc1ccc(Cl)cc1 | 0.305
Oc1ccc(-c2nc(-c3ccc(F)cc3)c(-c3ccncc3)[nH]2)cc1 | 1.16
O=C(Nc1ccc([N+](=O)[O-])cc1Cl)c1cc(Cl)ccc1O | -1.16

same assay, conditions: TFE3-RCC viability, CellTiter-Glo, 48 h; measured here: UOK124 Z-AUC; stronger effect = lower value

SMILES | z-score
CN1CCN(CCCN2c3ccccc3Sc3ccc(C(F)(F)F)cc32)CC1 | 0.0577
CCOC(=O)N1CCC(=C2c3ccc(Cl)cc3CCc3cccnc32)CC1 | 0.516
O=c1cc(-c2ccc(O)cc2)oc2cc(O)cc(O)c12 | -0.371
COc1cc2ncnc(Nc3cccc(Cl)c3)c2cc1OC | -0.162
CC(C)c1ccc2c(c1)c(SC(C)(C)C)c(CC(C)(C)C(=O)O)n2Cc1ccc(Cl)cc1 | 0.22
Oc1ccc(-c2nc(-c3ccc(F)cc3)c(-c3ccncc3)[nH]2)cc1 | 2.18
O=C(Nc1ccc([N+](=O)[O-])cc1Cl)c1cc(Cl)ccc1O | -0.589

same assay, conditions: TFE3-RCC viability, CellTiter-Glo, 48 h; measured here: UOK124 cell viability

SMILES | AC50
COC(=O)Nc1nc2ccc(C(=O)c3cccs3)cc2[nH]1 | 0.0235 µM [falling, full curve]
CCOC(=O)N1CCC(=C2c3ccc(Cl)cc3CCc3cccnc32)CC1 | 33.2 µM [falling, single point]
O=c1cc(-c2ccc(O)cc2)oc2cc(O)cc(O)c12 | 2.96 µM [falling, full curve]
Oc1ccc(-c2nc(-c3ccc(F)cc3)c(-c3ccncc3)[nH]2)cc1 | 37.2 µM [falling, single point]
O=C1c2c(O)ccc(O)c2C(=O)c2c(NCCNCCO)ccc(NCCNCCO)c21 | 0.209 µM [falling, full curve]
O=C(Nc1ccc([N+](=O)[O-])cc1Cl)c1cc(Cl)ccc1O | 1.48 µM [falling, full curve]

same assay, conditions: TFE3-RCC viability, CellTiter-Glo, 48 h; measured here: UOK145 Z-AUC; stronger effect = lower value

SMILES | z-score
CN1CCN(CCCN2c3ccccc3Sc3ccc(C(F)(F)F)cc32)CC1 | -0.411
CCOC(=O)N1CCC(=C2c3ccc(Cl)cc3CCc3cccnc32)CC1 | 0.255
O=c1cc(-c2ccc(O)cc2)oc2cc(O)cc(O)c12 | 0.148
COc1cc2ncnc(Nc3cccc(Cl)c3)c2cc1OC | 0.479
CC(C)c1ccc2c(c1)c(SC(C)(C)C)c(CC(C)(C)C(=O)O)n2Cc1ccc(Cl)cc1 | -0.0575
Oc1ccc(-c2nc(-c3ccc(F)cc3)c(-c3ccncc3)[nH]2)cc1 | 0.932
O=C(Nc1ccc([N+](=O)[O-])cc1Cl)c1cc(Cl)ccc1O | -1.03

same assay, conditions: TFE3-RCC viability, CellTiter-Glo, 48 h; measured here: UOK145 cell viability

SMILES | AC50
CN1CCN(CCCN2c3ccccc3Sc3ccc(C(F)(F)F)cc32)CC1 | 5.9 µM [falling, full curve]
COC(=O)Nc1nc2ccc(C(=O)c3cccs3)cc2[nH]1 | 0.0059 µM [falling, full curve]
CCOC(=O)N1CCC(=C2c3ccc(Cl)cc3CCc3cccnc32)CC1 | 29.6 µM [falling, single point]
O=c1cc(-c2ccc(O)cc2)oc2cc(O)cc(O)c12 | 14.8 µM [falling, partial curve]
COc1cc2ncnc(Nc3cccc(Cl)c3)c2cc1OC | 26.4 µM [falling, single point]
CC(C)c1ccc2c(c1)c(SC(C)(C)C)c(CC(C)(C)C(=O)O)n2Cc1ccc(Cl)cc1 | 23.5 µM [falling, partial curve]
Oc1ccc(-c2nc(-c3ccc(F)cc3)c(-c3ccncc3)[nH]2)cc1 | 29.6 µM [falling, single point]
O=C1c2c(O)ccc(O)c2C(=O)c2c(NCCNCCO)ccc(NCCNCCO)c21 | 0.296 µM [falling, full curve]
O=C(Nc1ccc([N+](=O)[O-])cc1Cl)c1cc(Cl)ccc1O | 2.35 µM [falling, full curve]

— PubChem BioAssay (NCATS)
